# Laboratory results as given in the supplement of paper PMC8728848.
# The other results are listed elsewhere or left out.
# B1: Neuropilin-1 (Rattus norvegicus), Q9QWJ9 (protein)
# chain: MERGLPLLCATLALALALAGAFRSDKCGGTIKIENPGYLTSPGYPHSYHPSEKCEWLIQAPEPYQRIMINFNPHFDLEDRDCKYDYVEVIDGENEGGRLWGKFCGKIAPSPVVSSGPFLFIKFVSDYETHGAGFSIRYEIFKRGPECSQNYTAPTGVIKSPGFPEKYPNSLECTYIIFAPKMSEIILEFESFDLEQDSNPPGGVFCRYDRLEIWDGFPEVGPHIGRYCGQKTPGRIRSSSGILSMVFYTDSAIAKEGFSANYSVLQSSISEDFKCMEALGMESGEIHSDQITASSQYGTNWSVERSRLNYPENGWTPGEDSYREWIQVDLGLLRFVTAVGTQGAISKETKKKYYVKTYRVDISSNGEDWITLKEGNKAIIFQGNTNPTDVVFGVFPKPLITRFVRIKPASWETGISMRFEVYGCKITDYPCSGMLGMVSGLISDSQITASNQGDRNWMPENIRLVTSRTGWALPPSPHPYINEWLQVDLGDEKIVRGVIIQGGKHRENKVFMRKFKIAYSNNGSDWKMIMDDSKRKAKSFEGNNNYDTPELRAFTPLSTRFIRIYPERATHSGLGLRMELLGCEVEVPTAGPTTPNGNPVDECDDDQANCHSGTGDDFQLTGGTTVLATEKPTIIDSTIQSEFPTYGFNCEFGWGSHKTFCHWEHDSHAQLRWRVLTSKTGPIQDHTGDGNFIYSQADENQKGKVARLVSPVVYSQSSAHCMTFWYHMSGSHVGTLRVKLHYQKPEEYDQLVWMVVGHQGDHWKEGRVLLHKSLKLYQVIFEGEIGKGNLGGIAVDDISINNHIPQEDCAKPTDLDKKNTEIKIDETGSTPGYEEGKGDKNISRKPGNVLKTLDPILITIIAMSALGVLLGAVCGVVLYCACWHNGMSERNLSALENYNFELVDGVKLKKDKLNPQSNYSEA
# Key:
# Experiment in all cases: glycan array binding signal (z-score within array); higher = stronger binding
# Settings in all cases: glycan notation: IUPAC condensed, linker removed
# [1] = biological target: Gal(b1-3)[Fuc(a1-4)]GlcNAc(b1-2)Man(a1-3)[Gal(b1-3)[Fuc(a1-4)]GlcNAc(b1-2)Man(a1-6)]Man(b1-4)GlcNAc(b1-4)GlcNAc
# Method in brief: (§1)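 Arrays were curated from the Consortium for Functional Glycomics database, 3228 in total, and kept only where the protein sequence was available. Binding is expressed as a within-array Z-score. This score was averaged across arrays of the same protein sequence at different concentrations or buffers and across linkers, and negative values can be read as non-binding.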
# [2] = biological target: Gal(b1-3)[Fuc(a1-4)]GlcNAc(b1-2)Man(a1-3)[Gal(b1-3)[Fuc(a1-4)]GlcNAc(b1-2)Man(a1-6)]Man(b1-4)GlcNAc(b1-4)[Fuc(a1-6)]GlcNAc
# Method in brief: as §1
# [3] = biological target: Gal(b1-3)[Fuc(a1-4)]GlcNAc(b1-3)Gal(b1-3)[Fuc(a1-4)]GlcNAc
# Method in brief: as §1
# [4] = biological target: Gal(b1-3)[Fuc(a1-4)]GlcNAc(b1-3)Gal(b1-4)GlcNAc
# Method in brief: as §1
# [5] = biological target: Gal(b1-3)[Fuc(a1-4)]GlcNAc(b1-3)Gal(b1-4)[Fuc(a1-3)]GlcNAc
# Method in brief: as §1
# [6] = biological target: Gal(b1-3)[GlcNAc(b1-6)]GalNAc
# Method in brief: as §1
# [7] = biological target: Gal(b1-3)[Neu5Ac(a2-6)]GalNAc
# Method in brief: as §1
# [8] = biological target: Gal(b1-3)[Neu5Ac(a2-6)]GlcNAc(b1-6)Gal(b1-4)Glc
# Method in brief: as §1
# [9] = biological target: Gal(b1-3)[Neu5Ac(b2-6)]GalNAc
# Method in brief: as §1
# [10] = biological target: Gal(b1-4)GalNAc(a1-3)[Fuc(a1-2)]Gal(b1-4)GlcNAc
# Method in brief: as §1
# [11] = biological target: Gal(b1-4)GalNAc(b1-3)[Fuc(a1-2)]Gal(b1-4)GlcNAc
# Method in brief: as §1
# Gal(b1-4)Glc = biological target: Gal(b1-4)Glc
# Method in brief: as §1
# Gal(b1-4)Glc6S = biological target: Gal(b1-4)Glc6S
# Method in brief: as §1
# Gal(b1-4)GlcNAc = biological target: Gal(b1-4)GlcNAc
# Method in brief: as §1
# [12] = biological target: Gal(b1-4)GlcNAc(a1-6)Gal(b1-4)GlcNAc
# Method in brief: as §1
# [13] = biological target: Gal(b1-4)GlcNAc(b1-2)Man(a1-3)Man(b1-4)GlcNAc(b1-4)GlcNAc
# Method in brief: as §1
# [14] = biological target: Gal(b1-4)GlcNAc(b1-2)Man(a1-3)[Gal(b1-4)GlcNAc(b1-2)Man(a1-6)]Man(b1-4)GlcNAc(b1-4)GlcNAc
# Method in brief: as §1
# [15] = biological target: Gal(b1-4)GlcNAc(b1-2)Man(a1-3)[Gal(b1-4)GlcNAc(b1-2)Man(a1-6)]Man(b1-4)GlcNAc(b1-4)[Fuc(a1-6)]GlcNAc
# Method in brief: as §1
# [16] = biological target: Gal(b1-4)GlcNAc(b1-2)Man(a1-3)[Man(a1-6)]Man(b1-4)GlcNAc(b1-4)GlcNAc
# Method in brief: as §1
# [17] = biological target: Gal(b1-4)GlcNAc(b1-2)Man(a1-6)Man(b1-4)GlcNAc(b1-4)GlcNAc
# Method in brief: as §1
# [18] = biological target: Gal(b1-4)GlcNAc(b1-2)Man(a1-6)[Man(a1-3)]Man(b1-4)GlcNAc(b1-4)GlcNAc
# Method in brief: as §1
# [19] = biological target: Gal(b1-4)GlcNAc(b1-2)[Gal(b1-4)GlcNAc(b1-4)]Man(a1-3)[Gal(b1-4)GlcNAc(b1-2)Man(a1-6)]Man(b1-4)GlcNAc(b1-4)GlcNAc
# Method in brief: as §1
# [20] = biological target: Gal(b1-4)GlcNAc(b1-3)Gal(b1-3)GlcNAc
# Method in brief: as §1
# [21] = biological target: Gal(b1-4)GlcNAc(b1-3)Gal(b1-4)Glc
# Method in brief: as §1
# [22] = biological target: Gal(b1-4)GlcNAc(b1-3)Gal(b1-4)GlcNAc
# Method in brief: as §1
# [23] = biological target: Gal(b1-4)GlcNAc(b1-3)Gal(b1-4)GlcNAc(b1-3)Gal(b1-4)GlcNAc
# Method in brief: as §1
# [24] = biological target: Gal(b1-4)GlcNAc(b1-3)Gal(b1-4)[Fuc(a1-3)]GlcNAc(b1-3)Gal(b1-4)[Fuc(a1-3)]GlcNAc
# Method in brief: as §1
# [25] = biological target: Gal(b1-4)GlcNAc(b1-3)GalNAc
# Method in brief: as §1
# [26] = biological target: Gal(b1-4)GlcNAc(b1-3)[Gal(b1-4)GlcNAc(b1-6)]Gal(b1-4)GlcNAc
# Method in brief: as §1
# [27] = biological target: Gal(b1-4)GlcNAc(b1-3)[GlcNAc(b1-6)]Gal(b1-4)GlcNAc
# Method in brief: as §1
binder,measurement,setting,value
B1,glycan array binding signal (z-score),[1],3.3
same,glycan array binding signal (z-score),[2],2.37
same,glycan array binding signal (z-score),[3],-0.229
same,glycan array binding signal (z-score),[4],-0.294
same,glycan array binding signal (z-score),[5],-0.263
same,glycan array binding signal (z-score),[6],-0.229
same,glycan array binding signal (z-score),[7],-0.251
same,glycan array binding signal (z-score),[8],-0.262
same,glycan array binding signal (z-score),[9],-0.235
same,glycan array binding signal (z-score),[10],0.018
same,glycan array binding signal (z-score),[11],-0.204
same,glycan array binding signal (z-score),Gal(b1-4)Glc,-0.332
same,glycan array binding signal (z-score),Gal(b1-4)Glc6S,-0.22
same,glycan array binding signal (z-score),Gal(b1-4)GlcNAc,-0.064
same,glycan array binding signal (z-score),[12],-0.104
same,glycan array binding signal (z-score),[13],-0.225
same,glycan array binding signal (z-score),[14],-0.288
same,glycan array binding signal (z-score),[15],-0.274
same,glycan array binding signal (z-score),[16],-0.02
same,glycan array binding signal (z-score),[17],-0.165
same,glycan array binding signal (z-score),[18],-0.353
same,glycan array binding signal (z-score),[19],-0.295
same,glycan array binding signal (z-score),[20],-0.323
same,glycan array binding signal (z-score),[21],-0.284
same,glycan array binding signal (z-score),[22],-0.263
same,glycan array binding signal (z-score),[23],-0.269
same,glycan array binding signal (z-score),[24],-0.201
same,glycan array binding signal (z-score),[25],-0.211
same,glycan array binding signal (z-score),[26],-0.28
same,glycan array binding signal (z-score),[27],-0.205
